Reference: PubChem BioAssay AID485364 (National Center for Advancing Translational Sciences (NCATS), 2010)
The whole screen tested about 360,000 compounds, of which about 11,000 (3.1%) were called active. The shares of active, inactive and inconclusive entries below differ from those in the screen. Calls follow the shape of the dose curve; as a rule, active = well fitted inhibition curve with a large enough effect; inconclusive = small, poorly fitted or top-dose-only effect; inactive = no such curve, though single readings can be large or run the other way. No potency is given beside an inconclusive call; the fits are too rough.

Target: Schistosoma mansoni thioredoxin glutathione reductase (TGR) (UniProt Q962Y6)
Assay: qHTS Assay for the Inhibitors of Schistosoma Mansoni Peroxiredoxins; also: nearly all actives have a fitted effect of over 60% in size
Conditions: purified TGR, DTNB reduction, TNB absorbance 405 nm; activity change, negative = inhibition: at 114 µM (top of the series) unless noted
Method in brief: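 Kinetic colorimetric format: TGR-catalysed, NADPH-driven DTNB reduction monitored via TNB absorbance. Enzyme dispensed at 20 nM; compound exposure 15 min at room temperature before reaction start.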
% is scaled to controls: 0 for no effect and ±100 for the full control effect; potency is read from the fitted curve at half-maximal effect; tags tell the direction and shape of the fitted curve.

Row | SMILES | Potency | activity change, negative = inhibition
1 | COc1ccc([N+](=O)[O-])cc1N(CC(O)CN1CCCCC1)S(=O)(=O)c1ccc(C)cc1 (stereo unspecified) | active: 35.5 µM | –
2 | Cc1cccc(N2CCCn3c2nc2c3c(=O)n(CCN3CCOCC3)c(=O)n2C)c1 | inconclusive [inhibitor, full curve, poor fit] | –
3 | COc1ccc(CN2C(=O)CC(=O)NC2=S)cc1 | inconclusive [inhibitor, partial curve] | –
4 | O=Cc1c(N2CCN(CCO)CC2)nc2ccccn2c1=O | – | inactive: -26.4%
5 | CCOc1ccc(N2C(=O)CC(SCC(=O)O)C2=O)cc1 (stereo unspecified) | – | inactive: -7.28%
6 | O=[N+]([O-])c1ccc(C2Nc3cccc4cccc(c34)N2)cc1 | active: 20 µM | –
7 | COc1ccc(Br)c(C(=O)Nc2nc3ccccc3[nH]2)c1 | – | inactive: -32.9%
8 | Cc1ccc(CNC(=O)CCS(=O)(=O)c2ccc3c(c2)CC(C)N3C(=O)C2CC2)o1 (stereo unspecified) | active: 44.7 µM | –
9 | COc1ccc2c(c1)c1c(c(=O)n(-c3ccccc3C)c(=O)n1CC(=O)Nc1c(C)cccc1C)n2C | – | inactive: 2.13%
10 | CC(=O)c1cccc(NC(=O)N2CCC(NC(=O)C34CC5CC(CC(C5)C3)C4)CC2)c1 | – | inactive: -8.45%
11 | Cn1c(COc2ccc(Br)cc2)nnc1SC1CCc2ccccc2C1=O (stereo unspecified) | inconclusive [inhibitor, partial curve, poor fit] | –
12 | O=C(NCCCc1ccccc1)c1ccc(CS(=O)Cc2ccc(Cl)cc2)o1 (stereo unspecified) | inconclusive [inhibitor, full curve] | –
13 | CNC(=O)c1c(NC(=O)c2cccc(C)c2)sc2c1CCC2 | inconclusive [inhibitor, partial curve] | –
14 | C#CCOCCOCCOCCNc1nc(N2CCN(C(=O)[C@H]([C@@H](C)CC)n3cc([C@@H](N)CC(C)C)nn3)CC2)nc(N2CCN(C(=O)[C@H](Cc3cc4ccccc4[nH]3)n3cc([C@@H](N)Cc4ccc(O)cc4)nn3)CC2)n1 | inconclusive [inhibitor, partial curve] | –
15 | CCC1CCCCN1CCCNS(=O)(=O)c1ccc2c(c1)oc(=O)n2C (stereo unspecified) | – | inactive: -5.21%
16 | COc1cc(Nc2ccccn2)cc(C(=O)Nc2cccc(C(F)(F)F)c2)c1 | inconclusive [inhibitor, full curve] | –
17 | CN(Cc1ccccc1)C(NC(=O)c1ccccc1)C(Cl)(Cl)Cl (stereo unspecified) | inconclusive [inhibitor, full curve] | –
18 | CCc1ccc(NC(=O)c2ccc3c(c2)C(=O)N(Cc2ccco2)C3=O)cc1 | inconclusive [inhibitor, partial curve] | –
19 | COc1ccccc1NC(=O)CSc1nnc(-c2ccccn2)n1Cc1ccco1 | active: 39.8 µM | –
20 | CCOC(=O)C1=C(O)/C(=C/c2ccc(CNC(=O)C(=O)Nc3ccc(C)cc3)o2)N=C1C | active: 17.8 µM | –
21 | COC(=O)c1sc(S(=O)(=O)NC(Cc2ccccc2)C(=O)O)c(C(=O)OC)c1C (stereo unspecified) | inconclusive [inhibitor, single point] | –
22 | COc1ccc(CNC(=O)Cn2c(=O)oc3cc(S(=O)(=O)N4CCCC4)ccc32)cc1 | inconclusive [inhibitor, single point] | –

Row | SMILES | Potency | activity change, negative = inhibition
23 | Cc1ccc(/C=C2\C(=O)NC(=S)N(c3ccc(F)cc3)C2=O)o1 | active: 1.58 µM | –
24 | CCCSc1nc(N2CCOCC2)c2c(c1C#N)CCCC2 | inconclusive [inhibitor, partial curve, poor fit] | –
25 | CC(=O)Nc1ccccc1C(=O)C(=O)Nc1ccc(Cl)cc1 | – | inactive: 9.73%
26 | Cc1ccc(C2C3=C(Nc4[nH]n(-c5ccccc5)c(=O)c42)c2ccccc2C3=O)cc1 (stereo unspecified) | inconclusive [inhibitor, partial curve] | –
27 | O=C1OC2(CCCCC2)CC2=C1C1O[C@](c3ccsc3)(Cc3c1ccc1ccccc31)O2 | inconclusive [inhibitor, full curve, poor fit] | –
28 | CCCCn1c(N)c(N(Cc2ccccc2OC)C(=O)CN2C(=O)NC3(CCCC3)C2=O)c(=O)[nH]c1=O | active: 56.2 µM | –
29 | Cc1cccc(CC(=O)NCCN2CCCCC2)c1 | inconclusive [inhibitor, full curve, poor fit] | –
30 | CCC(=C/c1sc2ccc3ccccc3c2[n+]1C)/C=C1\Sc2ccc3ccccc3c2N1C | inconclusive [inhibitor, partial curve] | –
31 | O=C(CSc1nnc(COc2ccccc2F)n1-c1ccccc1)NCc1ccco1 | active: 39.8 µM | –
32 | COc1ccc(N2CCN(C(=O)c3ccc4ccccc4n3)CC2)cc1 | inconclusive [inhibitor, single point] | –
33 | CCOC(=O)N1CCN(C(=O)CCS(=O)(=O)c2ccc3c(c2)CC(C)N3C(=O)CC)CC1 (stereo unspecified) | active: 22.4 µM | –
34 | CCO[C@@H]1OC(C(=O)N2CCN(Cc3ccccc3)CC2)=C[C@H](c2ccc(C(F)(F)F)cc2)[C@H]1CCCO | inconclusive [inhibitor, partial curve] | –
35 | COc1ccccc1N1CCN(C/C=C/c2ccc(N(C)C)cc2)CC1 | inconclusive [inhibitor, partial curve, poor fit] | –
36 | Cc1cc(C)nc(S/C=C/C(=O)c2ccc(F)cc2)n1 | active: 0.708 µM | –
37 | C=CCN1C(=O)CSc2ccc(C(=O)NCc3ccco3)cc21 | inconclusive [inhibitor, full curve] | –
38 | Cc1cc(C=C2C(=O)CCCC2=O)c(C)n1-c1ccccc1 | inconclusive [inhibitor, partial curve] | –
39 | Cc1nn2c(-c3cccc(NC(=O)c4ccc(Cl)cc4)c3)nnc2c2ccccc12 | inconclusive [inhibitor, single point] | –
40 | O=C(c1cc2ccccc2o1)N1CCN(S(=O)(=O)c2ccc(F)c(F)c2F)CC1 | – | inactive: -4.48%
41 | COc1cc([C@@H]2c3cc4c(cc3[C@@H](NC3CCN(Cc5ccccc5)CC3)[C@H]3COC(=O)[C@H]23)OCO4)cc(OC)c1O | – | inactive: -28.3%
42 | Cc1cccc(-c2nc(CS(=O)CC(=O)N3CCN(C)CC3)c(C)o2)c1 (stereo unspecified) | inconclusive [inhibitor, partial curve] | –
43 | CCOC(=O)C1CCCN(C(=O)CCCn2nnnc2CN2CCOCC2)C1 (stereo unspecified) | active: 39.8 µM | –
44 | O=C(O)C1C2CCC(O2)C1C(=O)Nc1ccc(O)cc1 (stereo unspecified) | inconclusive [inhibitor, partial curve] | –

Row | SMILES | Potency | activity change, negative = inhibition
45 | Cc1ccc(C)c(NC(=O)c2cc(=O)c3cc(C)cc(C)c3o2)c1 | inconclusive [inhibitor, single point] | –
46 | CCCC(=O)N1CCN(c2ccc(NC(=O)c3ccc([N+](=O)[O-])o3)cc2)CC1 | inconclusive [inhibitor, full curve] | –
47 | CCCCN(C)C(=O)c1cc2c(s1)-c1ccccc1S(=O)(=O)C2 | – | inactive: 6.35%
48 | CN1C(=O)NC(=O)/C(=C\C=C\c2ccccc2[N+](=O)[O-])C1=O | inconclusive [inhibitor, partial curve, poor fit] | –
49 | O=C(COc1cccc(C(F)(F)F)c1)N1CCN(c2ccc(O)cc2)CC1 | inconclusive [inhibitor, partial curve] | –
50 | COc1ccc([N+](=O)[O-])cc1NC(=O)COC(=O)c1ccccc1C(=O)c1ccccc1 | inconclusive [inhibitor, single point] | –
51 | COc1cc(OC)cc(-c2nnc(Sc3ccc(C=O)cc3[N+](=O)[O-])o2)c1 | inconclusive [inhibitor, full curve] | –
52 | COc1ccc(S(=O)(=O)Oc2cccc(/C=N/N=C3/NC(=O)C(CC(=O)O)S3)c2)cc1 (stereo unspecified) | – | inactive: 3.72%
53 | CCCC(=O)N1CCN(c2ccc(NC(=S)NC(=O)c3cccc(C)c3)cc2)CC1 | inconclusive [inhibitor, full curve] | –
54 | O=C(CSc1ccccc1)N1CCN(c2ccccc2)CC1 | – | inactive: -7.22%
55 | COc1ccc(C(=O)c2ccc(N3CCOCC3)cc2)c(OC)c1 | inconclusive [inhibitor, full curve, poor fit] | –
56 | Cn1c(N)c(C(=O)CN2CCc3ccccc3C2)c(=O)n(C)c1=O | inconclusive [inhibitor, partial curve] | –
57 | CC1c2cccn2CCN1S(=O)(=O)c1ccc(F)cc1 (stereo unspecified) | inconclusive [inhibitor, partial curve] | –
58 | COC(=O)C1=COC(C)C2CN3CCc4c([nH]c5cc(OC)c(OC)cc45)C3CC12 (stereo unspecified) | active: 20 µM | –
59 | COc1ccc(CCC(=O)Nc2sccc2C#N)cc1 | inconclusive [inhibitor, partial curve] | –
60 | O=c1c(O[C@@H]2O[C@H](CO)[C@@H](O)[C@H](O)[C@H]2O)c(-c2ccc(O)c(O)c2)oc2cc(O)cc(O)c12 | inconclusive [inhibitor, full curve] | –
61 | Cc1ccc(N=N/C(=C\O)C(=O)c2ccc(Cl)cc2)cc1 | – | inactive: 2.8%
62 | C=CCNC(=S)NNC(=O)c1cc(C)nc2ccccc12 | inconclusive [inhibitor, partial curve] | –
63 | COC(=O)[C@]1(Cc2ccccc2)N[C@H](c2ccc(-c3ccc(Cl)c(Cl)c3)cc2)[C@@H]2C(=O)N(C)C(=O)[C@@H]21 | inconclusive [inhibitor, partial curve] | –
64 | COc1cc(C(=O)N/C(=C\c2cn(C)c3ccccc23)C(=O)N2CCN(C)CC2)cc(OC)c1OC | – | inactive: 7.37%
65 | CCNS(=O)(=O)c1ccc(NC(=S)NCc2ccco2)cc1 | inconclusive [inhibitor, partial curve] | –
66 | CC(=O)Nc1ccc(NC(=S)Nc2ccc(F)cc2)cc1 | inconclusive [inhibitor, partial curve] | –
